In PMC6546734:
Results are given in words; binding and its absence hold for the method and conditions named. In cells and extracts the contact can be indirect. Some binding calls cover weakened binding; strength is not graded here.

Chains of the proteins cited; added tags and fusions are not shown. Lines headed by an entry give the natural chain unless they say otherwise; changes in a name come on top.
UniProt Q13485: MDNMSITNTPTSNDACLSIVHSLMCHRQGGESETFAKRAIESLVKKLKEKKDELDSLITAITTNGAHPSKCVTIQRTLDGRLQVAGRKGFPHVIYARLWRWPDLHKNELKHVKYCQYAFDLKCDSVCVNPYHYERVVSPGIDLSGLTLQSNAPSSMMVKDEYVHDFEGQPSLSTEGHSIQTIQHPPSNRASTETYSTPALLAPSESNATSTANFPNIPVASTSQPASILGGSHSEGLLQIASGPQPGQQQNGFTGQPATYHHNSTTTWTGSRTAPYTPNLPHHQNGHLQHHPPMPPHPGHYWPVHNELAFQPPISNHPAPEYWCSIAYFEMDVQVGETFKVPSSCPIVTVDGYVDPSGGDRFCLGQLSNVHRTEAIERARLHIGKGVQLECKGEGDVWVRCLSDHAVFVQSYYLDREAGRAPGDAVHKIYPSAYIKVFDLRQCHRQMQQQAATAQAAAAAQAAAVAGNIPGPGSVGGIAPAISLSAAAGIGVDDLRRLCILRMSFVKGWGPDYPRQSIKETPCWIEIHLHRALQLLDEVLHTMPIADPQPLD
UniProt Q15797: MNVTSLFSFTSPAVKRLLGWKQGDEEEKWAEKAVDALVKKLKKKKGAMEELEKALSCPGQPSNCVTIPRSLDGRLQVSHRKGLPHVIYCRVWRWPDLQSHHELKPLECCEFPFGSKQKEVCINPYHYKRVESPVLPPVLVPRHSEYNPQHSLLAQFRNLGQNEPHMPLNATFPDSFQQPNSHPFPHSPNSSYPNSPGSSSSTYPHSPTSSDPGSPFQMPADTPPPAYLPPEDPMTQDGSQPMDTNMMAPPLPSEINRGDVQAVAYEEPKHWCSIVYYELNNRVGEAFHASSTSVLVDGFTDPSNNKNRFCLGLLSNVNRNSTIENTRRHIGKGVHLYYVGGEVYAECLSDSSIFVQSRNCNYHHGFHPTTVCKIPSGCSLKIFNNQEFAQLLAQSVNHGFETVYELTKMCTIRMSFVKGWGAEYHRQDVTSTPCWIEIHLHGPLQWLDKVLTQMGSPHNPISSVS
UniProt Q15796: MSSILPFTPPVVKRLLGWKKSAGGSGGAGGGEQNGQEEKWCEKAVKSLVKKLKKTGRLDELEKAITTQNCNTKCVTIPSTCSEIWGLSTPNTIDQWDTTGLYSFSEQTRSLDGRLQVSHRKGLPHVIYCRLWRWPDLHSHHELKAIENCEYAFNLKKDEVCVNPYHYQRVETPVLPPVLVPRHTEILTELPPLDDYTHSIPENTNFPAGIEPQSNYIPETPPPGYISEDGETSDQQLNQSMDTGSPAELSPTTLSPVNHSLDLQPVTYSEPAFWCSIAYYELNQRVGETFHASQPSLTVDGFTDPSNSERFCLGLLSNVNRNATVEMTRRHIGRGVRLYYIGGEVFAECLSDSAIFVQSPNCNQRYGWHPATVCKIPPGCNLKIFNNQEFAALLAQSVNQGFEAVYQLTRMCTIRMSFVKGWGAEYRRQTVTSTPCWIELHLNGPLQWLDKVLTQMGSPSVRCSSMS
UniProt P84022: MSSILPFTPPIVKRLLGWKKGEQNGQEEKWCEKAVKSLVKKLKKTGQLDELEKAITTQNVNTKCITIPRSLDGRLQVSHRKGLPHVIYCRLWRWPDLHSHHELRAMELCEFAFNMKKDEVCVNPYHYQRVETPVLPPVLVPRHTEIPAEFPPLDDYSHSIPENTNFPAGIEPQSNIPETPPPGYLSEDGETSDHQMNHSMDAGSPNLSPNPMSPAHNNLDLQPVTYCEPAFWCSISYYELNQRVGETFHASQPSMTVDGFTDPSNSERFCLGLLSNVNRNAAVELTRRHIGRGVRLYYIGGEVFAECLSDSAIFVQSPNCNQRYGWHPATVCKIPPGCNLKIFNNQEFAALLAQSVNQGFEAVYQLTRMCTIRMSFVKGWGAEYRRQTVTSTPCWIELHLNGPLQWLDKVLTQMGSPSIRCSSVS
UniProt P50549: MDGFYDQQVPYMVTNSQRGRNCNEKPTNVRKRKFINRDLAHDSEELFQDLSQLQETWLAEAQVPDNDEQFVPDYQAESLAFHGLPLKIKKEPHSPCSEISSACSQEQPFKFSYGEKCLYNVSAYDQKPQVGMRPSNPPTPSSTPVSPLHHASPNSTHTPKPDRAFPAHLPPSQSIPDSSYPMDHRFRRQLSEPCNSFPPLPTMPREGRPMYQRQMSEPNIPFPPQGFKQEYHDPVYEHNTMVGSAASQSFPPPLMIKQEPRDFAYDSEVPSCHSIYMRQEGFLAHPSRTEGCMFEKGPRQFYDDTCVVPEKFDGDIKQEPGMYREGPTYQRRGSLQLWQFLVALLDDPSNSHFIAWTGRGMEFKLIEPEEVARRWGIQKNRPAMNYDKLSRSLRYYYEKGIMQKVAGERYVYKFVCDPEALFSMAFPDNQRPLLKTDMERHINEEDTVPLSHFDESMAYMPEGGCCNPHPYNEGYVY

Experiments:
[1] = target: GST-SMAD4 (UniProt Q13485); assay: pull-down; GST or GST fusion proteins bound to glutathione agarose beads, incubated 3 h with 293T protein extracts holding 6Myc-tagged ETV1 constructs; 20 mM HEPES pH 7.4, 25 mM NaCl, 0.01% Tween-20, 1 mM DTT; anti-Myc western blot; only the target purified
[2] = target: Flag-tagged SMAD1 (UniProt Q15797); assay: co-IP; 6Myc-ETV1 coexpressed with Flag-tagged SMAD proteins in 293T cells; IP with anti-Flag antibodies, anti-Myc western blot; lysis and washes in 50 mM Tris-HCl pH 7.4, 150 mM NaCl, 50 mM NaF, 0.5% Igepal CA-630, 0.1 mM DTT
[3] = target: Flag-tagged SMAD2 (UniProt Q15796); assay: as above
[4] = target: Flag-tagged SMAD3 (UniProt P84022); assay: as above
[5] = target: Flag-tagged SMAD4 (UniProt Q13485); assay: as above

| binding [1] | Substance | also measured |
| --- | --- | --- |
| binds | 6Myc-tagged ETV1 2-429 (from UniProt P50549 2-429) (domain or fragment) | – |
| binds | 6Myc-tagged ETV1 182-477 (from UniProt P50549 182-477) (domain or fragment) | – |
| no binding | 6Myc-tagged ETV1 249-383 (from UniProt P50549 249-383) (domain or fragment) | – |
| binds | 6Myc-tagged ETV1 249-429 (from UniProt P50549 249-429) (domain or fragment) | – |
| binds | 6Myc-tagged ETV1 249-477 (from UniProt P50549 249-477) (domain or fragment) | – |
| no binding | 6Myc-tagged ETV1 333-477 (from UniProt P50549 333-477) (domain or fragment) | – |
| binds | 6Myc-tagged ETV1 (from UniProt P50549 1-477) | binding [2]: no binding; binding [3]: no binding; binding [4]: no binding; binding [5]: binds |
| no binding | 6Myc-tagged ETV1 truncated from the C-terminus down to amino acid 249 (from UniProt P50549 1-249) (domain or fragment) | – |
| no binding | 6Myc-tagged ETV1 truncated from the C-terminus down to amino acid 333 (from UniProt P50549 1-333) (domain or fragment) | – |
